{
  "source": "PubChem BioAssay AID651820",
  "about": "(National Center for Advancing Translational Sciences (NCATS), 2012)",
  "note": "“And” between values parts separate entries of the source, which are not always exact repeats. Identical values can stand only once. Out of some 340,000 compounds screened, about 12,000 (3.5%) were called active. The shares of active, inactive and inconclusive entries below differ from those in the screen. The call rests on the fitted dose curve; in most records, active means well fitted inhibition curve with a large enough effect; inconclusive means small, poorly fitted or top-dose-only effect, or another doubt; inactive means no such curve, though single readings can be large or run the other way. A potency beside an inconclusive call is a rough fit, not a confirmed value. On the % scale 0 is the no-effect control and ±100 the full control effect; potency means the concentration at half of the fitted maximal effect; tags describe the fitted curve by direction and shape.",
  "data": [
    {"experiment": "qHTS Assay for Inhibitors of Hepatitis C Virus (HCV)", "settings": "Huh7.5.1 HCVcc-Cre (HCVcc is cell-culture hepatitis C virus) infection, luciferase reporter, 44 h; activity change, negative = inhibition: at 41.8 µM (top of the series) unless noted", "in_short": "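Cells (1,000/well) were plated 4 h before compound, then infected with HCVcc-Cre virus (~0.5 moi). After 44 h further culture, infection was read as luciferase luminescence following a 15 min substrate incubation at room temperature.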", "values": [
      {"smiles": "N#CCCn1nnc2ccccc21", "activity change, negative = inhibition": "inactive: 13.8%"},
      {"smiles": "CN1CCN(CCCNC(=O)c2ccc(/C=C3\\Oc4ccccc4N(Cc4ccc(Cl)cc4)C3=O)cc2)CC1", "Potency": "inconclusive: 3.55 µM [inhibitor, partial curve, poor fit]"},
      {"smiles": "COc1cc(Cl)c(C)cc1NC(=O)c1ccccc1NC(=O)CN1CCOCC1", "activity change, negative = inhibition": "inactive: -21.1%"},
      {"smiles": "Cc1cccc2c(=O)cc(C(F)(F)F)[nH]c12", "activity change, negative = inhibition": "inactive: -11.2%"},
      {"smiles": "O=C(Nc1cccnc1)c1ccc(CN2CCc3ccccc3C2)cc1", "Potency": "active: 4.47 µM"},
      {"smiles": "Cc1cc(N2CCN(C(=O)Nc3ccc(F)cc3F)CC2)c2ccccc2n1", "Potency": "inconclusive: 10 µM [inhibitor, partial curve]"},
      {"smiles": "COc1ccc(/C(N)=N/OC(=O)c2ccc(OC)c([N+](=O)[O-])c2)cc1OC", "Potency": "active: 35.5 µM"},
      {"smiles": "COc1ccc(NC(=O)C2CCCNC2=O)cc1", "note": "(centres undefined)", "activity change, negative = inhibition": "inactive: 16.2%"},
      {"smiles": "CN(CC(=O)Nc1ccc(S(=O)(=O)N2CCCC2)cc1)Cc1c(F)cccc1Cl", "Potency": "inconclusive: 31.6 µM [inhibitor, single point]"},
      {"smiles": "COc1ccccc1N1CCN(S(=O)(=O)c2cc(-c3cc(C)no3)ccc2C(C)C)CC1", "Potency": "inconclusive: 31.6 µM [inhibitor, single point]"},
      {"smiles": "Cc1ccc2[nH]c(=O)c(-c3nc4c(C)cccn4c3NCc3ccco3)cc2c1", "Potency": "inconclusive: 3.16 µM [inhibitor, partial curve]"},
      {"smiles": "Cc1nonc1C1CCCN1C(=O)c1cc(COc2ccc(F)cc2Cl)on1", "note": "(centres undefined)", "Potency": "inconclusive: 11.2 µM [inhibitor, partial curve]"},
      {"smiles": "COc1ccccc1OCC(=O)NCCS(=O)(=O)N1CCN(c2ccccc2)CC1", "Potency": "inconclusive: 31.6 µM [inhibitor, single point]"},
      {"smiles": "CCc1nc(N)nc(N)c1-c1ccc(Cl)c(N=[N+]=[N-])c1", "Potency": "inconclusive: 11.2 µM [inhibitor, partial curve] and inconclusive: 8.91 µM [inhibitor, partial curve]"},
      {"smiles": "C=CCSC1=N/C(=C\\c2ccsc2)C(=O)S1", "activity change, negative = inhibition": "inactive: -4.27%"},
      {"smiles": "O=C(c1cc(Cl)ccc1O)N1CCN(S(=O)(=O)c2cccs2)CC1", "Potency": "inconclusive: 2.82 µM [inhibitor, partial curve, poor fit]"},
      {"smiles": "COC(=O)c1cnn(-c2ccc(Cl)cc2)c1/C=N/NC(N)=S", "Potency": "inconclusive: 10 µM [inhibitor, partial curve, poor fit]"},
      {"smiles": "COc1ccccc1N(C)S(=O)(=O)c1ccc(Cl)c(C(=O)NCC2(N(C)C)CCCCC2)c1", "activity change, negative = inhibition": "inconclusive: -51% [inhibitor]"},
      {"smiles": "CCOc1cc2[nH]c(=O)n(Cc3cccc(OC)c3)c(=O)c2cc1OCC", "Potency": "inconclusive: 2.82 µM [inhibitor, full curve]"},
      {"smiles": "O=C(CN1C(=O)C2CC=CCC2C1=O)Nc1ccc(F)cc1F", "note": "(centres undefined)", "activity change, negative = inhibition": "inactive: 7.26%"},
      {"smiles": "Cc1ccc(OCCSCc2nc3ccccc3[nH]2)cc1", "Potency": "inconclusive: 11.2 µM [inhibitor, single point]"},
      {"smiles": "COc1ccccc1NC(=S)N(Cc1ccco1)Cc1cc2cc(C)ccc2[nH]c1=O", "Potency": "inconclusive: 12.6 µM [inhibitor, single point]"},
      {"smiles": "COc1ccc(CN2CCN(c3ncccn3)CC2)c(C)c1C", "activity change, negative = inhibition": "inactive: -20.8%"},
      {"smiles": "COc1cccc(N(C(=O)c2snc(C(N)=O)c2N)C(C(=O)NCc2ccccc2)c2ccc(O)cc2)c1", "note": "(centres undefined)", "Potency": "inconclusive: 12.6 µM [inhibitor, single point]"},
      {"smiles": "O=C(NCCCN1CCN(CCCNC(=O)c2cccc(Cl)c2)CC1)c1cccc(Cl)c1", "Potency": "inconclusive: 11.2 µM [inhibitor, partial curve]"},
      {"smiles": "Cc1cc(C)cc(N(C(=O)Cc2cccs2)C(C(=O)NC2CCCCC2)c2ccccn2)c1", "note": "(centres undefined)", "activity change, negative = inhibition": "inactive: -20.1%"},
      {"smiles": "Fc1ccc(-c2csc3ncnc(Cl)c23)cc1", "activity change, negative = inhibition": "inactive: 10.3%"},
      {"smiles": "Cc1cc(S(=O)(=O)Nc2ccc(C(=O)NCc3cccnc3)cc2)ccc1F", "activity change, negative = inhibition": "inactive: 13.5%"},
      {"smiles": "O=c1[nH]c(/C=C/c2ccccc2OC(F)F)nc2c1cnn2-c1ccccc1", "activity change, negative = inhibition": "inactive: -0.334%"},
      {"smiles": "CC(=O)CSc1nc2cc3c(cc2cc1C#N)OCCO3", "activity change, negative = inhibition": "inactive: -20%"},
      {"smiles": "CCc1nc(N)nc(N)c1-c1ccc(Cl)cc1", "Potency": "inconclusive: 10 µM [inhibitor, single point]"},
      {"smiles": "COC(=O)Cc1c(C)c2ccc(OCC(=O)N3CCCC3)c(C)c2oc1=O", "Potency": "inconclusive: 31.6 µM [inhibitor, single point]"},
      {"smiles": "CCOc1ccc(NC(=O)CN(C)C(=O)c2ccc(N3CCCCC3)c([N+](=O)[O-])c2)cc1OCC", "Potency": "inconclusive: 35.5 µM [inhibitor, partial curve, poor fit]"},
      {"smiles": "O=C(Cc1cccc(C(F)(F)F)c1)Nc1ccc(S(=O)(=O)N2CCCC2)cc1", "Potency": "inconclusive: 11.2 µM [inhibitor, partial curve]"},
      {"smiles": "COc1ccc(-c2nnc(OCc3ccccc3)c3ccccc23)cc1", "Potency": "inconclusive: 10 µM [inhibitor, partial curve]"},
      {"smiles": "O=C(NNC(=O)c1ccccc1O)c1ccc(NS(=O)(=O)c2ccc(F)cc2)cc1", "Potency": "inconclusive: 35.5 µM [inhibitor, single point]"},
      {"smiles": "Nc1nc(F)cc(NCc2ccccc2)n1", "activity change, negative = inhibition": "inactive: -2.67%"},
      {"smiles": "Cc1ccc(SCC(=O)NCc2ccncc2)cc1", "activity change, negative = inhibition": "inactive: -5.5%"},
      {"smiles": "CCCCc1c(C)nn(-c2nnc3c4ccccc4n(CC)c3n2)c1C", "Potency": "inconclusive: 12.6 µM [inhibitor, partial curve]"},
      {"smiles": "CCOc1ccc(-n2nc(C(=O)NC3CCCCC3)c3ccccc3c2=O)cc1", "activity change, negative = inhibition": "inactive: 1.34%"},
      {"smiles": "Cc1cccc(N(CC(=O)Nc2ccccc2-c2ccccc2)S(=O)(=O)c2ccccc2)c1C", "Potency": "inconclusive: 11.2 µM [inhibitor, partial curve]"},
      {"smiles": "O=C(NCc1ccccn1)C1CCC(=O)N1C1CCCCC1", "note": "(centres undefined)", "Potency": "inconclusive: 31.6 µM [inhibitor, single point]"},
      {"smiles": "Cc1cnc(NC(=O)c2cc(S(=O)(=O)N(C)C)ccc2N2CCCC2)s1", "Potency": "inconclusive: 3.55 µM [inhibitor, full curve]"},
      {"smiles": "COc1cccc(OCCNc2cc(Cl)ccc2[N+](=O)[O-])c1", "Potency": "inconclusive: 7.08 µM [inhibitor, partial curve]"},
      {"smiles": "O=C(NCC1CCN(Cc2ccc(Cl)cc2)CC1)C1CCCN(c2ncnc3c2nc2n3CCCCC2)C1", "note": "(centres undefined)", "Potency": "inconclusive: 1.58 µM [inhibitor, partial curve]"},
      {"smiles": "O=C1c2ccccc2C2=Nc3ccccc3SC(c3cccc(F)c3)C12", "note": "(centres undefined)", "Potency": "inconclusive: 14.1 µM [inhibitor, partial curve, poor fit]"},
      {"smiles": "CC(=O)c1cc2c(cc1NS(=O)(=O)c1ccc(C)cc1)OCCO2", "Potency": "inconclusive: 10 µM [inhibitor, partial curve]"},
      {"smiles": "O=C(c1cccc(F)c1)N1CCN(C(=O)C2CC2)CC1", "activity change, negative = inhibition": "inactive: 17.3%"},
      {"smiles": "COc1ccc(C)cc1Nc1nc(C)nc2c1oc1ccccc12", "Potency": "inconclusive: 31.6 µM [inhibitor, single point]"},
      {"smiles": "O=Cc1ccc2ccc3cccnc3c2n1", "Potency": "inconclusive: 31.6 µM [inhibitor, single point]"},
      {"smiles": "CN(C)c1nc(OCCNC(=O)Nc2ccccc2)nc(N2CCOCC2)n1", "Potency": "inconclusive: 14.1 µM [inhibitor, single point]"},
      {"smiles": "COc1ccc(Cl)cc1NC(=O)CNCc1cccs1", "Potency": "inconclusive: 12.6 µM [inhibitor, single point]"},
      {"smiles": "Cc1ccc(NC(=O)C(=O)c2cn(CC(=O)N3CCCCC3)c3ccccc23)cc1", "Potency": "inconclusive: 3.16 µM [inhibitor, full curve]"},
      {"smiles": "Brc1ccc2c(c1)CN1CCCC1=N2", "Potency": "inconclusive: 7.94 µM [inhibitor, partial curve]"},
      {"smiles": "O=C1/C(=C\\c2cccnc2)CN(Cc2ccccc2)C/C1=C\\c1cccnc1", "Potency": "active: 6.31 µM"},
      {"smiles": "COc1ccc(NS(=O)(=O)c2cccc(C(=O)NC3CCN(Cc4ccccc4)CC3)c2)cc1", "Potency": "inconclusive: 10 µM [inhibitor, partial curve]"},
      {"smiles": "Cc1cc(C)c2nc(N(CCCN(C)C)C(=O)c3ccc4c(c3)CCCC4)sc2c1", "Potency": "active: 7.08 µM"},
      {"smiles": "Cc1ccc(NC(=O)C(C)OC(=O)c2cc(=O)[nH]c3ccccc23)cc1S(=O)(=O)N1CCOCC1", "note": "(centres undefined)", "Potency": "inconclusive: 31.6 µM [inhibitor, single point]"},
      {"smiles": "O=C(Nc1cccc(NC(=O)c2ccccc2[N+](=O)[O-])c1)c1ccccc1Cl", "Potency": "inconclusive: 11.2 µM [inhibitor, partial curve]"},
      {"smiles": "O=C(Nc1ccc2nc3n(c(=O)c2c1)CCCCC3)C(=O)N1CCN(c2ccccc2)CC1", "activity change, negative = inhibition": "inactive: -8.98%"},
      {"smiles": "Cc1cc(-n2c(C)cc(C(=O)CSc3nnnn3-c3ccccc3)c2C)no1", "Potency": "active: 8.91 µM"},
      {"smiles": "Cc1nn(CC(=O)N2CCC(C)CC2)c(=O)c2cccn12", "Potency": "inconclusive: 3.16 µM [inhibitor, single point]"},
      {"smiles": "Cc1ccc(C2=NN(S(=O)(=O)c3ccccc3)C(c3ccccc3O)C2)cc1", "note": "(centres undefined)", "Potency": "active: 14.1 µM"},
      {"smiles": "Cc1nn(C)cc1NC(=O)c1cc2nc(-c3ccco3)cc(C(F)(F)F)n2n1", "Potency": "inconclusive: 10 µM [inhibitor, partial curve]"},
      {"smiles": "CC(N)Cc1c[nH]c2ccc(OCc3cccs3)cc12", "note": "(centres undefined)", "Potency": "inconclusive: 8.91 µM [inhibitor, partial curve]"},
      {"smiles": "Cc1ccc(N/C=C/C(=O)c2ccccc2)cc1C", "Potency": "inconclusive: 15.8 µM [inhibitor, single point]"},
      {"smiles": "Cn1c(-c2ccc(F)cc2)cnc1SCC(=O)Nc1ccccc1N1CCOCC1", "Potency": "inconclusive: 35.5 µM [inhibitor, single point]"},
      {"smiles": "COCCn1c(C)cc(C(=O)CSc2nc3ccccc3o2)c1C", "Potency": "inconclusive: 7.08 µM [inhibitor, partial curve]"},
      {"smiles": "Cc1sc2nc(CSc3ccccc3)nc(NCCN(C)C)c2c1C", "Potency": "inconclusive: 31.6 µM [inhibitor, single point]"}
    ]}
  ]
}
